Earlier results on 16 sequences are cited in article PMC11006913.

Some of the results follow.

One data set has as its target HOXD13 Q325R (Homo sapiens) (UniProt P35453). Conditions: PBM; conditions not shown; double strand, one strand shown; scale: upbm affinity estimate (log intensity, higher = more binding, comparable within an allelic series).
On to AGTACAAA [8-mer AGTACAAA], for which the binding signal was 12.5. Turning to ATAAAACG [8-mer ATAAAACG], the binding signal was 12.1. As for TCGTACAA [8-mer TCGTACAA], the binding signal is 11.9. As to ATATAAAG [8-mer ATATAAAG], the binding signal was 12.

In a further data set the target is HOXD13 R306W (Homo sapiens) (UniProt P35453). The conditions noted are these: PBM; conditions not shown; double strand, one strand shown; scale: upbm affinity estimate (log intensity, higher = more binding, comparable within an allelic series).
Turning to ATTAAATA [8-mer ATTAAATA], the binding signal was 11.6. With ATAAAATG [8-mer ATAAAATG], the binding signal was 11.5. With ACACCTGT [8-mer ACACCTGT], the binding signal is 10.5.

Turning to ATAAAATA [8-mer ATAAAATA], the binding signal was 11.6. Consider AATTTTAT [8-mer AATTTTAT], for which the binding signal is 11.5. Consider AATAAAAA [8-mer AATAAAAA], for which the binding signal was 11.6. On to GATTAATA [8-mer GATTAATA], for which the binding signal was 11.5. Take CACCTGTC [8-mer CACCTGTC]: the binding signal was 10.4. As to AATAAAAT [8-mer AATAAAAT], the binding signal is 11.8. As to CTCATAAC [8-mer CTCATAAC], the binding signal is 10.7.

Regarding ATATTAAA [8-mer ATATTAAA], the binding signal is 11.6. Turning to CCCATTAG [8-mer CCCATTAG], the binding signal is 9.71.

A further data set concerns the target HOXD13 S316C (Homo sapiens) (UniProt P35453). The conditions noted are these: PBM; conditions not shown; double strand, one strand shown; scale: upbm affinity estimate (log intensity, higher = more binding, comparable within an allelic series).
Regarding ATAAAATG [8-mer ATAAAATG], the binding signal was 12.1.

As for AATAAAAT [8-mer AATAAAAT], the binding signal is 12.2. With ATAAAACG [8-mer ATAAAACG], the binding signal is 12.1.
